# Assay results from the supplement of paper PMC8728848.
# The other results are listed elsewhere or left out.
# B1: PpFlo1 (Pichia pastoris) (protein)
# chain: MGSSHHHHHHSSGLVPRGSHMQESGDGDISDSAYACDIDATRYDGFNATIYEFQPGDGRLTRDPVFMSTGYLNRTQLHSITGVTDPGFSIYTPGVPTTTLYGIPNVNWENLLLELKGYFRAEVSGDYGLSLRNIDDSAILFFGKETAFQCCNENSISNEASTDYSLFTIFRQEGDETTNLDSFTYTQYLEAGKYYPVRTFFVNIERHAVFNFTMTLPDGTELTDFHNYIYQFGALDEEQCQA
# Tests used:
# Assay in all cases: glycan array binding signal (z-score within array); higher = stronger binding
# Settings in all cases: glycan notation: IUPAC condensed, linker removed
# [1] = biological target: Fuc(a1-2)[Gal(a1-3)]Gal(b1-3)GlcNAc(b1-6)GalNAc
# Outline: (§1)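 Glycan array data were curated from 3228 arrays in the Consortium for Functional Glycomics database and kept only where the protein sequence was available. Glycan names were converted to IUPAC-condensed notation, and columns mapping to the same glycan were averaged. The binding signal is a within-array Z-score, averaged across arrays of the same protein sequence at different concentrations or buffers and across linkers. Negative Z-scores can be read as non-binding.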
# [2] = biological target: Fuc(a1-2)[Gal(a1-3)]Gal(b1-4)Glc
# Outline: as §1
# [3] = biological target: Fuc(a1-2)[Gal(a1-3)]Gal(b1-4)GlcNAc
# Outline: as §1
# [4] = biological target: Fuc(a1-2)[Gal(a1-3)]Gal(b1-4)GlcNAc(b1-2)Man
# Outline: as §1
# [5] = biological target: Fuc(a1-2)[Gal(a1-3)]Gal(b1-4)GlcNAc(b1-2)Man(a1-3)[Fuc(a1-2)[Gal(a1-3)]Gal(b1-4)GlcNAc(b1-2)Man(a1-6)]Man(b1-4)GlcNAc(b1-4)GlcNAc
# Outline: as §1
# [6] = biological target: Fuc(a1-2)[Gal(a1-3)]Gal(b1-4)GlcNAc(b1-2)Man(a1-3)[Fuc(a1-2)[Gal(a1-3)]Gal(b1-4)GlcNAc(b1-2)Man(a1-6)]Man(b1-4)GlcNAc(b1-4)[Fuc(a1-6)]GlcNAc
# Outline: as §1
# [7] = biological target: Fuc(a1-2)[Gal(a1-3)]Gal(b1-4)GlcNAc(b1-3)GalNAc
# Outline: as §1
# [8] = biological target: Fuc(a1-2)[Gal(a1-3)]Gal(b1-4)GlcNAc(b1-3)[Fuc(a1-2)[Gal(a1-3)]Gal(b1-4)GlcNAc(b1-6)]GalNAc
# Outline: as §1
# [9] = biological target: Fuc(a1-2)[Gal(a1-3)]Gal(b1-4)GlcNAc(b1-6)GalNAc
# Outline: as §1
# [10] = biological target: Fuc(a1-2)[Gal(a1-3)]Gal(b1-4)[Fuc(a1-3)]Glc
# Outline: as §1
# [11] = biological target: Fuc(a1-2)[Gal(a1-3)]Gal(b1-4)[Fuc(a1-3)]GlcNAc
# Outline: as §1
# [12] = biological target: Fuc(a1-2)[Gal(a1-3)]Gal(b1-4)[Fuc(a1-3)]GlcNAc(b1-3)GalNAc
# Outline: as §1
# [13] = biological target: Fuc(a1-2)[Gal(a1-4)]Gal(b1-4)GlcNAc
# Outline: as §1
# [14] = biological target: Fuc(a1-2)[GalNAc(a1-3)]Gal
# Outline: as §1
# [15] = biological target: Fuc(a1-2)[GalNAc(a1-3)]Gal(b1-3)GalNAc(a1-3)[Fuc(a1-2)]Gal(b1-4)GlcNAc
# Outline: as §1
# [16] = biological target: Fuc(a1-2)[GalNAc(a1-3)]Gal(b1-3)GalNAc(b1-3)Gal(a1-4)Gal(b1-4)Glc
# Outline: as §1
# [17] = biological target: Fuc(a1-2)[GalNAc(a1-3)]Gal(b1-3)GlcNAc
# Outline: as §1
# [18] = biological target: Fuc(a1-2)[GalNAc(a1-3)]Gal(b1-3)GlcNAc(b1-2)Man(a1-3)[Fuc(a1-2)[GalNAc(a1-3)]Gal(b1-3)GlcNAc(b1-2)Man(a1-6)]Man(b1-4)GlcNAc(b1-4)GlcNAc
# Outline: as §1
# [19] = biological target: Fuc(a1-2)[GalNAc(a1-3)]Gal(b1-3)GlcNAc(b1-2)Man(a1-3)[Fuc(a1-2)[GalNAc(a1-3)]Gal(b1-3)GlcNAc(b1-2)Man(a1-6)]Man(b1-4)GlcNAc(b1-4)[Fuc(a1-6)]GlcNAc
# Outline: as §1
# [20] = biological target: Fuc(a1-2)[GalNAc(a1-3)]Gal(b1-3)GlcNAc(b1-3)GalNAc
# Outline: as §1
# [21] = biological target: Fuc(a1-2)[GalNAc(a1-3)]Gal(b1-3)GlcNAc(b1-6)GalNAc
# Outline: as §1
# [22] = biological target: Fuc(a1-2)[GalNAc(a1-3)]Gal(b1-4)Glc
# Outline: as §1
# [23] = biological target: Fuc(a1-2)[GalNAc(a1-3)]Gal(b1-4)GlcNAc
# Outline: as §1
# [24] = biological target: Fuc(a1-2)[GalNAc(a1-3)]Gal(b1-4)GlcNAc(b1-2)Man
# Outline: as §1
# [25] = biological target: Fuc(a1-2)[GalNAc(a1-3)]Gal(b1-4)GlcNAc(b1-2)Man(a1-3)[Fuc(a1-2)[GalNAc(a1-3)]Gal(b1-4)GlcNAc(b1-2)Man(a1-6)]Man(b1-4)GlcNAc(b1-4)GlcNAc
# Outline: as §1
# [26] = biological target: Fuc(a1-2)[GalNAc(a1-3)]Gal(b1-4)GlcNAc(b1-2)Man(a1-3)[Fuc(a1-2)[GalNAc(a1-3)]Gal(b1-4)GlcNAc(b1-2)Man(a1-6)]Man(b1-4)GlcNAc(b1-4)[Fuc(a1-6)]GlcNAc
# Outline: as §1
# [27] = biological target: Fuc(a1-2)[GalNAc(a1-3)]Gal(b1-4)GlcNAc(b1-3)Gal(b1-4)GlcNAc
# Outline: as §1
# [28] = biological target: Fuc(a1-2)[GalNAc(a1-3)]Gal(b1-4)GlcNAc(b1-3)Gal(b1-4)GlcNAc(b1-3)Gal(b1-4)GlcNAc
# Outline: as §1
# [29] = biological target: Fuc(a1-2)[GalNAc(a1-3)]Gal(b1-4)GlcNAc(b1-3)GalNAc
# Outline: as §1
# [30] = biological target: Fuc(a1-2)[GalNAc(a1-3)]Gal(b1-4)GlcNAc(b1-3)[Fuc(a1-2)[GalNAc(a1-3)]Gal(b1-4)GlcNAc(b1-6)]GalNAc
# Outline: as §1
# [31] = biological target: Fuc(a1-2)[GalNAc(a1-3)]Gal(b1-4)GlcNAc(b1-6)GalNAc
# Outline: as §1
# [32] = biological target: Fuc(a1-2)[GalNAc(a1-3)]Gal(b1-4)[Fuc(a1-3)]GlcNAc
# Outline: as §1
# [33] = biological target: Fuc(a1-2)[GalNAc(a1-3)]Gal(b1-4)[Fuc(a1-3)]GlcNAc(b1-3)GalNAc
# Outline: as §1
# [34] = biological target: Fuc(a1-2)[GalNAc(a1-4)]Gal(b1-4)GlcNAc
# Outline: as §1
# [35] = biological target: Fuc(a1-2)[GalNAc(b1-3)]Gal
# Outline: as §1
# Fuc(a1-3)GlcNAc = biological target: Fuc(a1-3)GlcNAc
# Outline: as §1
# [36] = biological target: Fuc(a1-3)[Gal(b1-4)]Glc6S
# Outline: as §1
# [37] = biological target: Fuc(a1-3)[Gal(b1-4)]GlcNAc
# Outline: as §1
# [38] = biological target: Fuc(a1-3)[Gal(b1-4)]GlcNAc(b1-2)Man
# Outline: as §1
# [39] = biological target: Fuc(a1-3)[Gal(b1-4)]GlcNAc(b1-2)Man(a1-3)[Fuc(a1-3)[Gal(b1-4)]GlcNAc(b1-2)Man(a1-6)]Man(b1-4)GlcNAc(b1-4)GlcNAc
# Outline: as §1
# [40] = biological target: Fuc(a1-3)[Gal(b1-4)]GlcNAc(b1-2)Man(a1-3)[Fuc(a1-3)[Gal(b1-4)]GlcNAc(b1-2)Man(a1-6)]Man(b1-4)GlcNAc(b1-4)[Fuc(a1-6)]GlcNAc
# Outline: as §1
# [41] = biological target: Fuc(a1-3)[Gal(b1-4)]GlcNAc(b1-3)Gal(b1-3)[Fuc(a1-4)]GlcNAc
# Outline: as §1
# [42] = biological target: Fuc(a1-3)[Gal(b1-4)]GlcNAc(b1-3)Gal(b1-4)[Fuc(a1-3)]GlcNAc
# Outline: as §1
# [43] = biological target: Fuc(a1-3)[Gal(b1-4)]GlcNAc(b1-3)Gal(b1-4)[Fuc(a1-3)]GlcNAc(b1-3)Gal(b1-4)[Fuc(a1-3)]GlcNAc
# Outline: as §1
# [44] = biological target: Fuc(a1-3)[Gal(b1-4)]GlcNAc(b1-3)GalNAc
# Outline: as §1
# [45] = biological target: Fuc(a1-3)[Gal(b1-4)]GlcNAc(b1-4)Gal(b1-4)[Fuc(a1-3)]GlcNAc
# Outline: as §1
# [46] = biological target: Fuc(a1-3)[Gal(b1-4)]GlcNAc(b1-4)Gal(b1-4)[Fuc(a1-3)]GlcNAc(b1-4)Gal(b1-4)[Fuc(a1-3)]GlcNAc
# Outline: as §1
# [47] = biological target: Fuc(a1-3)[Gal(b1-4)]GlcNAc(b1-6)GalNAc
# Outline: as §1
# [48] = biological target: Fuc(a1-3)[Gal(b1-4)]GlcNAc(b1-6)[Gal(b1-3)GlcNAc(b1-3)]Gal(b1-4)Glc
# Outline: as §1
# [49] = biological target: Fuc(a1-3)[Gal(b1-4)]GlcNAc(b1-6)[Neu5Ac(a2-3)Gal(b1-3)]GalNAc
# Outline: as §1
# [50] = biological target: Fuc(a1-3)[Gal(b1-4)]GlcNAc6S
# Outline: as §1
# [51] = biological target: Fuc(a1-3)[Gal3S(b1-4)]Glc
# Outline: as §1
# [52] = biological target: Fuc(a1-3)[Gal3S(b1-4)]GlcNAc
# Outline: as §1
# [53] = biological target: Fuc(a1-3)[Gal3S(b1-4)]GlcNAc6S
# Outline: as §1
# [54] = biological target: Fuc(a1-3)[GalNAc(b1-4)]GlcNAc
# Outline: as §1
# [55] = biological target: Fuc(a1-3)[GalNAc(b1-4)]GlcNAc6S
# Outline: as §1
# Fuc(a1-4)GlcNAc = biological target: Fuc(a1-4)GlcNAc
# Outline: as §1
# Fuc(b1-3)GlcNAc = biological target: Fuc(b1-3)GlcNAc
# Outline: as §1
# Gal(a1-2)Gal = biological target: Gal(a1-2)Gal
# Outline: as §1
# Gal(a1-3)Gal = biological target: Gal(a1-3)Gal
# Outline: as §1
binder,measurement,setting,value
B1,glycan array binding signal (z-score),[1],-0.381
same,glycan array binding signal (z-score),[2],-0.509
same,glycan array binding signal (z-score),[3],-0.455
same,glycan array binding signal (z-score),[4],0.18
same,glycan array binding signal (z-score),[5],0.149
same,glycan array binding signal (z-score),[6],-0.568
same,glycan array binding signal (z-score),[7],0.31
same,glycan array binding signal (z-score),[8],0.144
same,glycan array binding signal (z-score),[9],-0.228
same,glycan array binding signal (z-score),[10],-0.388
same,glycan array binding signal (z-score),[11],-0.266
same,glycan array binding signal (z-score),[12],1.04
same,glycan array binding signal (z-score),[13],0.178
same,glycan array binding signal (z-score),[14],-0.206
same,glycan array binding signal (z-score),[15],-0.222
same,glycan array binding signal (z-score),[16],-0.244
same,glycan array binding signal (z-score),[17],0.099
same,glycan array binding signal (z-score),[18],-0.146
same,glycan array binding signal (z-score),[19],-0.395
same,glycan array binding signal (z-score),[20],3.23
same,glycan array binding signal (z-score),[21],0.077
same,glycan array binding signal (z-score),[22],1.42
same,glycan array binding signal (z-score),[23],-0.475
same,glycan array binding signal (z-score),[24],-0.513
same,glycan array binding signal (z-score),[25],2.04
same,glycan array binding signal (z-score),[26],-0.285
same,glycan array binding signal (z-score),[27],-0.2
same,glycan array binding signal (z-score),[28],0.944
same,glycan array binding signal (z-score),[29],-0.501
same,glycan array binding signal (z-score),[30],-0.15
same,glycan array binding signal (z-score),[31],-0.194
same,glycan array binding signal (z-score),[32],-0.242
same,glycan array binding signal (z-score),[33],7.08
same,glycan array binding signal (z-score),[34],-0.177
same,glycan array binding signal (z-score),[35],-0.346
same,glycan array binding signal (z-score),Fuc(a1-3)GlcNAc,-0.469
same,glycan array binding signal (z-score),[36],1.15
same,glycan array binding signal (z-score),[37],0.264
same,glycan array binding signal (z-score),[38],-0.493
same,glycan array binding signal (z-score),[39],0.432
same,glycan array binding signal (z-score),[40],0.155
same,glycan array binding signal (z-score),[41],-0.101
same,glycan array binding signal (z-score),[42],-0.46
same,glycan array binding signal (z-score),[43],-0.162
same,glycan array binding signal (z-score),[44],1.43
same,glycan array binding signal (z-score),[45],-0.534
same,glycan array binding signal (z-score),[46],0.104
same,glycan array binding signal (z-score),[47],0.985
same,glycan array binding signal (z-score),[48],-0.249
same,glycan array binding signal (z-score),[49],3.09
same,glycan array binding signal (z-score),[50],0.039
same,glycan array binding signal (z-score),[51],0.321
same,glycan array binding signal (z-score),[52],-0.214
same,glycan array binding signal (z-score),[53],0.286
same,glycan array binding signal (z-score),[54],0.064
same,glycan array binding signal (z-score),[55],-0.225
same,glycan array binding signal (z-score),Fuc(a1-4)GlcNAc,-0.437
same,glycan array binding signal (z-score),Fuc(b1-3)GlcNAc,-0.474
same,glycan array binding signal (z-score),Gal(a1-2)Gal,-0.187
same,glycan array binding signal (z-score),Gal(a1-3)Gal,-0.643
